# Assay results: publication PMC6919601, “Identification of Plasmodium dipeptidyl aminopeptidase allosteric inhibitors by high throughput screening” (PLoS ONE, 2019)
# Out of some 110,000 compounds screened, about 230 (0.21%) showed an effect of 50% or more. This is one part of the list.
# Target: DPAP1 (Plasmodium falciparum, UniProt Q8IIJ9)
# Assay: primary screen, percent inhibition; read by cleavage of a fluorogenic dipeptide substrate; higher = more effect of the substance
# Set-up: species or system P. falciparum D10 trophozoite lysates; single well
# 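Further: 30 min substrate incubation versus DMSO and 10 µM JCP410 controls.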
# Sequence of DPAP1 (Q8IIJ9 whole entry, looked up): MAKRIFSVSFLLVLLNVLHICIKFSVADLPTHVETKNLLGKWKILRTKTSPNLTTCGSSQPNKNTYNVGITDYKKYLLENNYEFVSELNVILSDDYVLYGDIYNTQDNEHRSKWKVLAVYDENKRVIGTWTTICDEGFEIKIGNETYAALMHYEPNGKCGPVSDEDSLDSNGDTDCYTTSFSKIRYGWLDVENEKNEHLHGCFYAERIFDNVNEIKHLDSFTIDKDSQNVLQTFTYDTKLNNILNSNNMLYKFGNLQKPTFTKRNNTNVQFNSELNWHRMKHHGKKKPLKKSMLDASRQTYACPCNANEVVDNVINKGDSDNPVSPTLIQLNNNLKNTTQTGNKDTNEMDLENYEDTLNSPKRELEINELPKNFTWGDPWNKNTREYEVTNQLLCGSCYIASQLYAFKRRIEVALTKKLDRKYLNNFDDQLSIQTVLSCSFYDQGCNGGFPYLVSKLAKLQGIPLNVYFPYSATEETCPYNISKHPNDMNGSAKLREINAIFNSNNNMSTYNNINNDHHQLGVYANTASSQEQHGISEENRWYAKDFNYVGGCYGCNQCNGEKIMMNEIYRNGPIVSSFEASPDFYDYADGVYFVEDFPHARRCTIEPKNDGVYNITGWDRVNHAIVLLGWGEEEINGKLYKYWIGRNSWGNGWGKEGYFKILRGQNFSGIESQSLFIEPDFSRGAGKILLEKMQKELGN
row,SMILES,% Inhibition @ 10 uM [%]
1,CCS(=O)(=O)Nc1ccc(Nc2ccccc2)cc1,-7.08
2,COc1cc(C(=O)NCC2CCCO2)cc(OC)c1OC (stereo not shown),2.45
3,CCCN(CCC)c1ccc(C(c2c(C)n(C)n(-c3ccccc3)c2=O)c2c(C)n(C)n(-c3ccccc3)c2=O)cc1,3.74
4,CC(C)(C)NC(=O)/C(=C\c1cccs1)NC(=O)c1cccs1,0.385
5,Cc1nc(CC(=O)Nc2sc3c(c2C#N)CCCC3)cs1,-0.946
6,CC(=O)Nc1cccc(Oc2ncnc3scc(-c4ccc(C)cc4)c23)c1,27.9
7,CCN(CC)S(=O)(=O)c1ccc(NC(=O)c2ccc(C)c(Br)c2)cc1,-0.173
8,Cc1noc(/C=C/N(C)C)c1S(=O)(=O)NCCN1CCC(Cc2ccccc2)CC1,2.8
9,CC(C)C[C@H](NC(=O)c1cccc(-c2ccc(S(=O)(=O)N3CCOCC3)s2)c1)C(=O)NCC#N,-0.207
10,Clc1ccc(-c2nc3cc4ccccc4cc3o2)cc1,-2.59
11,CCc1ccc(CN(C(=O)c2cc(=O)c3ccccc3o2)C2CCS(=O)(=O)C2)cc1 (stereo not shown),3.51
12,COc1ccc(C(=O)CCC(=O)Nc2cccnc2)cc1,-2.28
13,CC(C)C[C@H](NC(=O)c1ccc(S(C)(=O)=O)cc1)C(=O)NCC#N,-1.41
14,O=C(Nc1ccc([N+](=O)[O-])cc1)c1ccc(-c2ccccc2)cc1,2.62
15,CC(=O)NC1C(OCCOc2ccc(Cl)cc2C)OC(CO)C(O)C1O (stereo not shown),4.41
16,CC(=O)NCCc1nc2ccccc2n1CCC1CCCCC1,2.73
17,CCc1nnc(NC(=O)C2CCCN(c3ncnc4c3nc3n4CCCCC3)C2)s1 (stereo not shown),-4.77
18,CCc1c(C#N)c(SCC(=O)N2CCc3cc(OC)c(OC)cc3C2)nc2c1C(=O)CC(C)(C)C2,17.8
19,Cc1ccccc1NC(=O)CN1C(=O)S/C(=C\c2ccccn2)C1=O,-7.61
20,COc1cc(C2C3=C(O)CCCC3=NC(C)=C2C(=O)N2CCOCC2)ccc1OCc1ccccc1 (stereo not shown),0.219
21,O=C(NC1CCCC1)c1cc(Cl)c(Cl)c(S(=O)(=O)N2CCOCC2)c1,-4.66
22,O=C1/C(=C/c2ccco2)N=C(Oc2ccccc2)N1c1ccccc1,1.31
23,CCCCOc1ccccc1C1C2=C(O)CC(C)(C)CC2=NC(C)=C1C(=O)OCC (stereo not shown),10.2
24,COc1cccc(C2C3=C(O)CC(C)(C)CC3=NC3=C2C(=O)CC(C)(C)C3)c1 (stereo not shown),-0.864
25,CC1=C(C(=O)Nc2ccccc2C)C(c2ccccc2C)C2=C(O)CC(C)(C)CC2=N1 (stereo not shown),-0.864
